Reference: the supplement of paper PMC10681739
± gives the standard deviation of the averaged measurements. Over roughly 4,000 sequences, “arbitrary fluorescence units” has its median near 830; the highest 2% begin near 6,500. Most of the strongest results are missing from this list.

target: RUNX1 (UniProt Q01196); experiment: RUNX1 binding intensity (PBM fluorescence), RUNX1 alone (arbitrary fluorescence units); higher = stronger binding; conditions: RUNX1 concentration 2 nM; ETS1 concentration 0 nM
Procedure: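 gcPBM on 36-bp genomic-derived probes (partner site mutated) containing one RUNX1 site and no ETS1 site. Recombinant human RUNX1 (2 nM) was incubated alone or with ETS1 (25 nM) and detected by anti-RUNX1 antibody fluorescence. Values are medians over 4 replicate spots (not normalised). The probes sit in constant array flanks that are not printed.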
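Also: Full-length recombinant human RUNX1 bound to double-stranded DNA microarray spots, detected with an Alexa488-labelled secondary antibody after the anti-RUNX1 primary, read as scanned spot fluorescence.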

UniProt Q01196, sequence (Q01196 whole entry): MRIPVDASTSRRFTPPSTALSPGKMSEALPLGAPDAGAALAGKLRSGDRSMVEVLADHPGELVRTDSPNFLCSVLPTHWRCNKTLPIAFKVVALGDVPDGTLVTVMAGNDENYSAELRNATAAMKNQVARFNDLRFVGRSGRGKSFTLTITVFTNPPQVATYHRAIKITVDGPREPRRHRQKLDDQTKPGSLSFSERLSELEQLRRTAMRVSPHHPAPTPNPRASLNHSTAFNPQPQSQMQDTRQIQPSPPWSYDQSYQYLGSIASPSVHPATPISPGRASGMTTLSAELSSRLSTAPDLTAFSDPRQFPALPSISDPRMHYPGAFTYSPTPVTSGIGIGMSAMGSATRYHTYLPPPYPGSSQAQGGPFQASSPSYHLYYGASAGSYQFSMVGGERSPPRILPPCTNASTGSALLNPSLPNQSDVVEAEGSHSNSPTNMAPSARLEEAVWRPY

Row | Sequence | RUNX1 binding intensity
1 | AACCATTACAGGGTGTGAGATTCAAACCACTAACAG | 802
2 | AGCGTGCTCTGCGGTTCACTTCCAGCCAGCCCCTCC | 2530
3 | CCACTGCCGTTGTGGGTAACGCGGAGGTGGAAGAAC | 936
4 | GTTGTGCAAGCCACAGATGATATGGGGAACTAGTTT | 794
5 | GACCTGCGGTGGAGGGCGCGACCTTGGCTTGCTGGC | 1130
6 | AACGGACCCGAAAGGGGCAGGTCTTGTGGGCGGGTC | 693
7 | TGCTGTCAAGCCACAGGCCTTTGCTGCTATCGTTTG | 816
8 | TGAAGAACCCGCAGCAGCTCCCATGATGAACTGGTT | 760
9 | AATGCAGCATCTCCTCTCCAGTTCACCACAGGCCCC | 1520
10 | GAGTTCGGCCTCGCCGTTTGTCCCTTGCGGTACCCG | 788
11 | ACAGCAAATGACTTAGGGAAAGTCCCAACCGCAATC | 1530
12 | CCACTGCCTGAAGGGGAACTGTGGGGGTGCGCGAGT | 805
13 | CCGGGACCGTTCCACTTCACCTCCCACCCACAGGTT | 1180
14 | AGCTGTTTGTGGTTGTCACACCTAGTTGCCTCTGTC | 1460
15 | GGGCCCACACCCGGCGCGCGCAACCGCAGCCTACTG | 1880
16 | CCCGCTGTCACTTGCTGCTTCCCTCCCGCACACGTG | 1170
17 | GTAGCCGATCTCCGATTGCCCGCCGCAGCTCCACCA | 919
18 | CCAGGAGCGTTGCGGCCGCGGCTTCGTCCTACGGCG | 849

Row | Sequence | RUNX1 binding intensity
19 | AGGAGGTGGTCAGGCGGAGGCCAGCATGTGTGCAAA | 818
20 | GAGCGGGAGCAGCCAAGGCGGGCCCTCCCGCAGGCC | 686
21 | CGGAGAGCTCGCGGTAATTCCGTCTCCCCGCCCTTT | 823
22 | GACAAGCCATGTGGTTGCTGGCAGGCAATCTCAGTC | 1430
23 | CTAAAGGCAGGGACCACAAACACTTGCTGTTTGTGT | 714
24 | GGACTCTGGCAGGGAGCTGTTTGTGGTTGTCACACC | 1020
25 | TCTCTTCAATGTGGTCCCCATCCAGCCACACCATCT | 1200
26 | GAAGGAAAGTGGTTTTCATAGGATGGGAAGGGCGAA | 811
27 | CTCTTGCGCTCAGTCATCCTCAGAGGTGGTAAGACT | 858
28 | TATATGTGGCTTCTTATTGTGACTTACACTGCCTCA | 878
29 | CAACTGAACGGACAGAACACAGCCACAAAACACGAG | 866 ± 53
30 | GCAACATGAAGGACCAAGTCCCCTCCCGCAATTTTA | 936
31 | CCGCCGACACACTTTCGGCGGCCACCACAGGGTATT | 834
32 | GCTCCCCGCAGCCAGCAGAGAAGGCCGAAGCAGTGG | 825
33 | CTGACAGTTACTTGCTGTCTTTGTGGGCGATTGTGA | 769
34 | TGGGATTCTCACCTCCGATCAGCGGTCCTGAACCCG | 646
35 | TCAAGAAAACAGTAAACTCTCAAAACCAAGTTCTGA | 736
